Structures are written as SMILES.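 1) Cells in 96-well plates. 2) Compound, 48 h, 5 concentrations. 3) Linear interpolation between surrounding doses. 4) Unreached endpoint = highest concentration. At the GI50, growth is halved. TGI denotes the concentration required for complete inhibition of growth.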

A word on the GI50: it is the concentration at which growth is held to half of that of the control. As usually defined, the TGI is the concentration giving total growth inhibition.

This assay relates to NCI-H322M lung. Put plainly: DTP human tumour cell line panel, 48 h.
`NC(=O)c1c(NC(=O)c2ccc(C3CCCCC3)cc2)sc2c1CCC(=O)C2`: the GI50 is 2.98 µM and the TGI is above 100 µM.
For `COc1ccc(CCOc2cc3c(cc2OC)CCN(C(=O)NCc2cocn2)C3c2ccc(C)cc2C)cc1` (stereo unspecified), in that order: 2.77 µM and above 100 µM.
Turning to `CS(=O)c1nccc(-c2c(-c3ccc(F)c(OCc4ccc(F)cc4)c3)nc3sccn23)n1` (stereo unspecified), the GI50 was 15.8 µM and the TGI was found to be 35.9 µM.

These data come from PubChem BioAssay (NCI).
